{"source": "the supplement of paper PMC10681739", "note": "Whole data set: some 2,700 sequences, median “arbitrary fluorescence units” near 4,100, cut for the highest 2% near 54,000. This is one part of the list.", "data": [{"molecular_target": "T1, ETS1 (UniProt P14921)", "T1 sequence": "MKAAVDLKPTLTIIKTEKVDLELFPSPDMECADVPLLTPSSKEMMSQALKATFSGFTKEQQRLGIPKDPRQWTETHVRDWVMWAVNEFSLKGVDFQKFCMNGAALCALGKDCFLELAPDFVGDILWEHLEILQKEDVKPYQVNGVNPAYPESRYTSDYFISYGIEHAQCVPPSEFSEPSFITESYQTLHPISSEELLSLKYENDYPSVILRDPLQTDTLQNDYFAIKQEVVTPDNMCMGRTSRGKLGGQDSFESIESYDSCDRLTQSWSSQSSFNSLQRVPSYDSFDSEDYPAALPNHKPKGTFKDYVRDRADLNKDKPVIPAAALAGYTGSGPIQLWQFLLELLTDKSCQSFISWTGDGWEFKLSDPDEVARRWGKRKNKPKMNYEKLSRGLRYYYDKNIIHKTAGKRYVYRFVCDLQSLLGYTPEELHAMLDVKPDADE", "assay": "ETS1 binding intensity (PBM fluorescence) (arbitrary fluorescence units); higher = stronger binding", "details": "ETS1 concentration 10 nM", "procedure": "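gcPBM on wild-type 36-bp genomic probes with two neighbouring ETS1 sites (4-24 bp apart). Recombinant human ETS1 (10 nM) was detected with anti-ETS1 antibody fluorescence. Values are medians over 3 replicate spots. The probes sit in constant array flanks that are not printed.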", "values": [{"sequence": "CTGGGTTCCGGTGTTGACGGGCACCACTTCCCTTTT", "ETS1 binding intensity": 13600}, {"sequence": "GAGAATGCAAGGAAGTGACTATTTCCTCCTGCCTGT", "ETS1 binding intensity": 2280}, {"sequence": "AGGCTGCATCCTGACCTTAGCCTCCATCCGCAGCAG", "ETS1 binding intensity": 3090}, {"sequence": "TGCCACCACACCAGGATGCTTCCGTCTTTGAAGGCA", "ETS1 binding intensity": 1030}, {"sequence": "GCCTGGGAACATGCTTCCTTTCCTGCTCCCGCTGGC", "ETS1 binding intensity": 1240}, {"sequence": "CGGCGGCTGCCGGAAAGCCACTTCCGGCCTGCTCCA", "ETS1 binding intensity": 25400}, {"sequence": "ACGACGCAGCCACTTCCGATTCCGGTCGGAGCACCG", "ETS1 binding intensity": 8910}, {"sequence": "GTCCGGGAAATGAGCATTGCTGCCACCAGGAAACTG", "ETS1 binding intensity": 383}, {"sequence": "AACAGCAGGATGTTAAACACTTTAACATCCTGTTAG", "ETS1 binding intensity": 6640}, {"sequence": "CCTGGCCGGAAACTGAGCCGTTCACTTCCGCCACCA", "ETS1 binding intensity": 14000}, {"sequence": "TGAAAGTTTCCTGTTTTGCAAACTCCGGATATAAGC", "ETS1 binding intensity": 23100}, {"sequence": "ACGTGGAGGAAATGCTCACGGCTTCGGATGCTATGA", "ETS1 binding intensity": 569}, {"sequence": "TGTGCCGTTTTCCGTCCGCGACTCTTCCGGCCCAGA", "ETS1 binding intensity": 3470}, {"sequence": "GGCCGCTTCCGAGCGCCGCCAACCGCTTCCGGGTTC", "ETS1 binding intensity": 5250}, {"sequence": "CGCAATCTGCTTCCGGGAGTGACGGAAACTGCTAGC", "ETS1 binding intensity": 10700}, {"sequence": "GGTGTTCCGGACCCGCGCGGTGCGGGGAGGAAGGCC", "ETS1 binding intensity": 1700}, {"sequence": "TAGTTGTCCCTTCCTTAAGCACTTCCTGTTTGATCT", "ETS1 binding intensity": 11900}, {"sequence": "GCACAGGATGTATGTAGAATGTGATTACTTCCTCTC", "ETS1 binding intensity": 4010}, {"sequence": "TTATTCTGTTTCCGGCAGTTTTACTTCCGTTTGTTT", "ETS1 binding intensity": 15900}, {"sequence": "TCTTAAGGAAGTTGAAGGCAAATCAACTTCCTGGTA", "ETS1 binding intensity": 2210}, {"sequence": "GTGTAATCCCAGCTTCCGGTTTCCTCACGTATACAG", "ETS1 binding intensity": 41400}, {"sequence": "CGTCACTTCCGTTGCTTAGGAGCACTGGGAAGTGTA", "ETS1 binding intensity": 37800}, {"sequence": "GCCTTCAAAGCTTCCTGCCAACTTCCTCTAGACAAC", "ETS1 binding intensity": 15000}, {"sequence": "GCCGCCGCGTACTTCCGGCCGGAAGAAAGGGCGGGC", "ETS1 binding intensity": 65400}, {"sequence": "CCCCAACAGGAAGTGAAAGCCCACATCCGTTGTCTT", "ETS1 binding intensity": 22500}, {"sequence": "AAAAGGAGGCTTCCTGGTTTAAAGGAAGTTGCTCTG", "ETS1 binding intensity": 4680}, {"sequence": "TGGTCCCCGTTTAGGAAACGGAAAAAGGGGCGTGCA", "ETS1 binding intensity": 175}, {"sequence": "GGATAACGGGCCCGGAAGCCGGAAGTTCAAAGCCGG", "ETS1 binding intensity": 10800}, {"sequence": "GCTGCTGGACAGGAAACAGGCAGGAAACGCGCGGCC", "ETS1 binding intensity": 7430}, {"sequence": "CCGCCGGAAACCTCGGTCCTCACGGTGCTTCCCGGT", "ETS1 binding intensity": 2650}, {"sequence": "CATCGGGCACTTCCTTCGAGCCGGAATCGAACCAGC", "ETS1 binding intensity": 4100}, {"sequence": "TACTGGTGTGTACAGGAAGGAAGTTCACTTTGACTA", "ETS1 binding intensity": 603}, {"sequence": "GTGCGTGGGCCTTCCGGGCCCGGAAGAAACTGCGTT", "ETS1 binding intensity": 2560}, {"sequence": "AGGGGGCAGGATGCTGGTGGGCACAGGATGTTGGTG", "ETS1 binding intensity": 2440}, {"sequence": "TGTCCCTTACAAGGATGCTCATCCTGCACTGCTCAC", "ETS1 binding intensity": 330}, {"sequence": "GAGGGACTAAGGAAGTTGAGACAGGAAAAGAGCCAT", "ETS1 binding intensity": 875}, {"sequence": "GTCACCCTTTCCTGCCGCCTCCCCGGATGAACTGCA", "ETS1 binding intensity": 5070}, {"sequence": "TCCATTTTATCCTGTCTGGACCACATCCTGTTTTGG", "ETS1 binding intensity": 5840}, {"sequence": "GGGGCCGATGCACTTCCGGCTTCCTCCTCCTCTGCC", "ETS1 binding intensity": 44900}, {"sequence": "TAACCATTTCCGGGTGAAGAGTGAGTTTCCGGTGTC", "ETS1 binding intensity": 31100}, {"sequence": "ACAACTTCCGGCTGTAAAGATGGCGGCTTCCTAGTG", "ETS1 binding intensity": 96400}, {"sequence": "GCAGGGCTTCCTGTGGTGTCTTCATTTCCCGAGCCG", "ETS1 binding intensity": 18400}, {"sequence": "CAAGACCGGAAGCGGAAATGGAATCGAGATAGCCTC", "ETS1 binding intensity": 38200}, {"sequence": "ATCCTCCACTTCCTAGGGTACCAGGAAATCTCCCCT", "ETS1 binding intensity": 1650}, {"sequence": "GGCTTGTGACTGCCGGATTTCCCCCACTTCCCTGAA", "ETS1 binding intensity": 330}, {"sequence": "CTCGGGCCGCCCTTCCGCGCTTCCGGGAGGCTTGTC", "ETS1 binding intensity": 5910}, {"sequence": "CTCAGAAACAGGAAAGGCTGTACTTCCTTTTCACCA", "ETS1 binding intensity": 2020}, {"sequence": "TCCTTGGTATTTCCTGAGTGATAGGATGTCTTTGTT", "ETS1 binding intensity": 6420}, {"sequence": "CAGCACTTCCTGGACATTTATACACTCATCCTGTAT", "ETS1 binding intensity": 25600}, {"sequence": "CGGCCCCTGCGGCTTCCGGCTTCCTGGCCGTCAAGC", "ETS1 binding intensity": 22000}, {"sequence": "TCCTCCTTCCGCCACAACACGATCACTTCCGGTTGG", "ETS1 binding intensity": 25600}, {"sequence": "GTTCTCACCACAGGATGATTTTCCTGTTTTCGCCCA", "ETS1 binding intensity": 411}, {"sequence": "GCCCTGGCCTTGACTTCCTTTCCTGTCACTTGCGTG", "ETS1 binding intensity": 2540}, {"sequence": "GCACTGGCGGAAGTGAGATGCAAGAGGAAGCTCACG", "ETS1 binding intensity": 7490}, {"sequence": "AGATGAAACATCCTTCTCACCACATCCTGTCAAGGT", "ETS1 binding intensity": 8100}, {"sequence": "AAGGTGAGAACGGAACCGTAGCTTCCGCCGGCGGAC", "ETS1 binding intensity": 1520}, {"sequence": "AGAGAGGGACTTCCGAGTGGGTCTTCCGGTTTTGTG", "ETS1 binding intensity": 7930}, {"sequence": "CAGAAGGTGTTCAGGAAACAGGAAGCTGTCAGCCAG", "ETS1 binding intensity": 2470}, {"sequence": "GGAGGGAGGAAACAGATGGGCCAAGAGGAAGCCACA", "ETS1 binding intensity": 377}, {"sequence": "AATAATCAGTCACTTCCTCGGGAAGTCATTTTCAAT", "ETS1 binding intensity": 826}, {"sequence": "GGTCCCCCTGCACTTCCTCATCCGGGGCCCGAGCCA", "ETS1 binding intensity": 3270}, {"sequence": "TCTCCTCTACAGGAAACCTCATATCCTGTAAGCTAT", "ETS1 binding intensity": 2440}, {"sequence": "TTTTAGGGTATTTCCTGTTTGTTTCCTGCACACACA", "ETS1 binding intensity": 30800}, {"sequence": "CCCCGCAAAACCCGGAAGCCTTCCGCTTCACTCTGG", "ETS1 binding intensity": 2210}, {"sequence": "AGGCACTAGGAAGCAGTTACTCATTTCCTGGAGGTT", "ETS1 binding intensity": 634}, {"sequence": "GAACCCTTCCTGCAGGGAGGCCGCCCGGATGCAACA", "ETS1 binding intensity": 4620}, {"sequence": "ATAAAACTACATTTCCCAGTTTCCTTTGCAGTTAGG", "ETS1 binding intensity": 252}, {"sequence": "ACGTCTTTTCCTGTCTTCAAGCACAGGAAATCAGTT", "ETS1 binding intensity": 11000}, {"sequence": "CACCAGCTTCCTGTTGCAGAGTTTGGGAAGTGAATC", "ETS1 binding intensity": 35200}, {"sequence": "GGCGAGGAAGTGGGCAGAAGAAGCCGAGGAAGCAGG", "ETS1 binding intensity": 454}, {"sequence": "GAGAAGCGCCTTCCTGTCACCCAGGAAGCTGCAACC", "ETS1 binding intensity": 10200}, {"sequence": "TGAATGCTGTCATTTCCGCTTCCGCCTCCTTCTTTC", "ETS1 binding intensity": 26500}, {"sequence": "CGAAGTTTGGCGGAACATGGCGGAAGCGTCTGGGGC", "ETS1 binding intensity": 384}, {"sequence": "ACAGAGCGTTGCGGAAACTCTTCCTGTGTCCAGGCA", "ETS1 binding intensity": 1900}, {"sequence": "ATCGCTCTCTGTTCCTGTCTACTTCCTGAGCCAAGA", "ETS1 binding intensity": 1290}, {"sequence": "CGAAGCGACGGCCCGGAAGGAAGTCGCGTGCTGAGG", "ETS1 binding intensity": 1120}, {"sequence": "GGCGGCGACGGAAGTGAAGTCACTTCCGGGCTGGGG", "ETS1 binding intensity": 21300}, {"sequence": "CCTCCCTCTTTCCGTAGCGCAGCTTCCTGCCCAGAG", "ETS1 binding intensity": 3600}, {"sequence": "CAGTTTGCATTTCCTGTTTTCGCTTCCTTATGTGTT", "ETS1 binding intensity": 32600}, {"sequence": "GAGGCAGGAAAGGCCAGTGGGCAAAACGGAACATGA", "ETS1 binding intensity": 212}]}]}
